Several values for one entry are separate records, joined by “and”; a condition that tells them apart may be missing. Equal entries are not always repeated. The inconclusive results got no clear call from the source; some entries with a clear call stand among them for comparison. For part of these data: Potencies of inconclusive entries are doubtful fits and often do not repeat. More than one record can exist for a structure, and the calls need not agree. Activity calls are given as the source filed them. Calls come from the whole dose curve; as a rule, active = well fitted curve in the direction sought with a large enough effect in the repeat runs; inconclusive = weak or mixed curves; inactive = no such curve, though single readings can be large; an effect the other way counts as inactive or inconclusive.
Experiments:
[1] = Human pregnane X receptor (PXR) small molecule agonists, qHTS cell viability counter screen (AID 1346977); note: nearly all actives have a fitted effect of over 50% in size
Summary of the method: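 Fluorescence read-out (CellTiter-Fluor) of viability in PXR-Luc HepG2 cells, multiplexed with the luciferase agonist read. Compounds in DMSO added after 5hr plating; 24hr total exposure at 37C, 5% CO2.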

[2] = Caspase-3/7 induction in CHO-K1 cells by small molecules, qHTS cell viability counter screen (AID 1346979); note: nearly all actives have a fitted effect of over 35% in size
Summary of the method: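 CHO-K1 wt, 1,500 cells/well; 5hr pre-incubation 37C/5% CO2; compound pin transfer (DMSO); 16hr exposure; CellTiter-Fluor added, 1hr, fluorescence read.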

[3] = target: Nuclear receptor subfamily 1 group I member 2 (Homo sapiens) (UniProt O75469); assay: Human pregnane X receptor (PXR) small molecule agonists, qHTS assay (AID 1346982); note: nearly all actives have a fitted effect of over 35% in size
Summary of the method: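 Stable HepG2 line reporting PXR-mediated CYP3A4 expression via luciferase. Treatment: 24 hr with compounds in DMSO at 37 C. Detection: ONE-Glo luminescence.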

[4] = target: Cytochrome P450 2C9 (Homo sapiens) (UniProt P11712); assay: Cytochrome P450 Family 2 Subfamily C Member 9 (CYP2C9) small molecule antagonists: luciferase reporter qHTS assay (AID 1671198); note: nearly all actives have a fitted effect of over 50% in size
Chain of UniProt P11712 (P11712 whole entry, looked up): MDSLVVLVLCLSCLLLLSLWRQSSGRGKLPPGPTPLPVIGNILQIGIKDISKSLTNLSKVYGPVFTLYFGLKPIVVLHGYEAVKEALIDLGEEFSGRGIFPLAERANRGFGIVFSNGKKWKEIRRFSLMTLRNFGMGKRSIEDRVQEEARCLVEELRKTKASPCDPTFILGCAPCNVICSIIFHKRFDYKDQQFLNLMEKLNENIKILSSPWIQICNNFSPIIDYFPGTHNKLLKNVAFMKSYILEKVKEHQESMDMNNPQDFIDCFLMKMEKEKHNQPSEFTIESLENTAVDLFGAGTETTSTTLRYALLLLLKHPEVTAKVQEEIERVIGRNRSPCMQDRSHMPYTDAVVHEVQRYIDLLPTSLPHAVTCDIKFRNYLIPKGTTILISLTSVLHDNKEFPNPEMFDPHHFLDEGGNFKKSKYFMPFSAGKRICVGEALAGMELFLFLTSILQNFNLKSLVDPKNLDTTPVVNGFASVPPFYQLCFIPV
Summary of the method: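 P450-Glo proluciferin substrate with CYP2C9 enzyme; 10 min RT preincubation, then NADPH regeneration 1 h at 37C; luciferin detection reagent 20 min RT, luminescence in relative luminescence units.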

[5] = Caspase-3/7 induction in HepG2 cells by small molecules, qHTS cell viability counter screen (AID 1346981); note: nearly all actives have a fitted effect of over 30% in size
Summary of the method: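 Treatment of HepG2 cells with DMSO-delivered compounds ran 16 hr at 37 C following a 5-hr pre-incubation of 2,000 cells/well. CellTiter-Fluor fluorescence, read after 1 hr, served as the viability measure in a qHTS format.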

[6] = target: Cytochrome P450 2C19 (Homo sapiens) (UniProt P33261); assay: Cytochrome P450 Family 2 Subfamily C Member 19 (CYP2C19) small molecule antagonists: luciferase reporter qHTS assay (AID 1671197); note: nearly all actives have a fitted effect of over 65% in size
Chain of UniProt P33261 (P33261 whole entry, looked up): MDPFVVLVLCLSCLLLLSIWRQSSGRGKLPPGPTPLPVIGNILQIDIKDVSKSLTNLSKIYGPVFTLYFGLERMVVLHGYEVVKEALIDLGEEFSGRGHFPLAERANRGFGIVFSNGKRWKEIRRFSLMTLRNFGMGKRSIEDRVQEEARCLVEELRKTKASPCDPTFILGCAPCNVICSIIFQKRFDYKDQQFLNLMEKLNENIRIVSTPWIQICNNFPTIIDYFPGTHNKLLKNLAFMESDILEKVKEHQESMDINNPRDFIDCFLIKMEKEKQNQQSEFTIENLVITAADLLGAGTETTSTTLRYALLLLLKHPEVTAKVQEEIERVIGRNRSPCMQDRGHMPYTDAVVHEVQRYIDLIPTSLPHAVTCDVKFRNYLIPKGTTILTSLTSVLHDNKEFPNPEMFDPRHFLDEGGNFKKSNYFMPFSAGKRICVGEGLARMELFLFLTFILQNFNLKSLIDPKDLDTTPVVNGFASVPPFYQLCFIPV
Summary of the method: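 First, compounds are pinned into enzyme-substrate mix and held 10 min at room temperature. Second, NADPH regeneration solution is added and plates incubate 1 h at 37C. Third, detection reagent is added and luminescence read after 20 min.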

[7] = target: Cytochrome P450 1A2 (Homo sapiens) (UniProt P05177); assay: Cytochrome P450 Family 1 Subfamily A Member 2 (CYP1A2) small molecule antagonists: luciferase reporter qHTS assay (AID 1671199); note: nearly all actives have a fitted effect of over 50% in size
Chain of UniProt P05177 (P05177 whole entry, looked up): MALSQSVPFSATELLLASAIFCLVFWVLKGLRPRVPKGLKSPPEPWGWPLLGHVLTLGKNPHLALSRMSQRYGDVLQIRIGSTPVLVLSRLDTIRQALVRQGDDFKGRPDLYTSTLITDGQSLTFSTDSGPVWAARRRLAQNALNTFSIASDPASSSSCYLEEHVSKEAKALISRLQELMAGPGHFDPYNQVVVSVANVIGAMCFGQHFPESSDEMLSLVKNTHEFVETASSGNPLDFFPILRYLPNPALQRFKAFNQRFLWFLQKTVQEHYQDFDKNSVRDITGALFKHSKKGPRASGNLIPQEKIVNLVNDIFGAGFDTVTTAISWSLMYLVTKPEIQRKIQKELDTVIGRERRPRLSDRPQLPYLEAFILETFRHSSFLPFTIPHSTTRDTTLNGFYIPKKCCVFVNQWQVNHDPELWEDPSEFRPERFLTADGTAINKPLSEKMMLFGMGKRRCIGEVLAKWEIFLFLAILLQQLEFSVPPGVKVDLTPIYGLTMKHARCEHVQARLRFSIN
Summary of the method: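 Read-out is luminescence from luciferin detection reagent (20 min) proportional to CYP1A2 activity; compounds in DMSO preincubated 10 min with enzyme and proluciferin substrate, then NADPH regeneration solution, 1 h, room temperature.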

[8] = target: Nuclear receptor subfamily 1 group I member 2 (Rattus norvegicus) (UniProt Q9R1A7); assay: Rat pregnane X receptor (rPXR) activation by small molecules, qHTS assay (AID 1346983); conditions: rPXR luciferase reporter cells, One-Glo luminescence, 24 h; max activation: stronger effect = higher value; note: nearly all actives have a fitted effect of over 20% in size
Chain of UniProt Q9R1A7 (Q9R1A7 whole entry, looked up): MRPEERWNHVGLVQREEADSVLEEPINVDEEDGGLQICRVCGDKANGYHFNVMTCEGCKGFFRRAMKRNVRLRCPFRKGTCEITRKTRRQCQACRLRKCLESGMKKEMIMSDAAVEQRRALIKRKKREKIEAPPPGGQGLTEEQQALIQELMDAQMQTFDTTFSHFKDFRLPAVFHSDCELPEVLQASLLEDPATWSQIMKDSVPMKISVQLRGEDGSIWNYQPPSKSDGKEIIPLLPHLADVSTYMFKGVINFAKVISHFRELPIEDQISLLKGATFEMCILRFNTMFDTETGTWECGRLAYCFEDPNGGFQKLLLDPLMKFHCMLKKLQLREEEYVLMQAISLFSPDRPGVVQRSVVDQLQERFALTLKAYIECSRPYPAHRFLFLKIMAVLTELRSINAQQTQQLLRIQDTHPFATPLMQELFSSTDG
Summary of the method: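 Cell-based rPXR activation assay: rPXR cells, 2,000 per well, rested 5hr at 37 C, then exposed to compounds in DMSO for 24 hr at 37 C. Luciferase activity read by One-Glo luminescence after 30 min at room temperature.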

[9] = target: Nuclear receptor subfamily 1 group I member 2 (Homo sapiens) (UniProt O75469); assay: CYP3A4 induction through human pregnane X receptor (PXR) by small molecules, qHTS assay (AID 1346984); note: nearly all actives have a fitted effect of over 40% in size
Summary of the method: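 After 24 h at 37C with compound, DPX-2 cells (HepG2, co-transfected PXR response element and CYP3A4 promoter-luciferase) got 3uM final P450-Glo Luciferin-IPA for 3 h; One-Glo luminescence followed.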

[10] = target: Nuclear receptor subfamily 1 group I member 2 (Homo sapiens) (UniProt O75469); assay: Human pregnane X receptor (PXR) activation by small molecules, qHTS assay (AID 1346985); note: nearly all actives have a fitted effect of over 40% in size
Summary of the method: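 DPX-2 cells (HepG2 co-transfected with a PXR response element and a CYP3A4-promoter luciferase construct) were seeded at 2,000 per well, rested 5 hr at 37C, then exposed to DMSO-dissolved compounds for 24 hr. Activation was read as luciferase luminescence.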

[11] = Caspase-3/7 induction in CHO-K1 cells by small molecules, qHTS assay (AID 1346980); note: nearly all actives have a fitted effect of over 15% in size
Summary of the method: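 Wild-type CHO-K1 cells exposed to compounds for 17hr at 37 C, 5% CO2. Caspase-3/7 activity then measured by Caspase-Glo 3/7 luminescence after 30min at room temperature.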

[12] = target: Cytochrome P450 3A4 (Homo sapiens) (UniProt P08684); assay: Cytochrome P450 Family 3 Subfamily A Member 4 (CYP3A4) small molecule antagonists: luciferase reporter qHTS assay (AID 1671201); note: nearly all actives have a fitted effect of over 50% in size
Chain of UniProt P08684 (P08684 whole entry, looked up): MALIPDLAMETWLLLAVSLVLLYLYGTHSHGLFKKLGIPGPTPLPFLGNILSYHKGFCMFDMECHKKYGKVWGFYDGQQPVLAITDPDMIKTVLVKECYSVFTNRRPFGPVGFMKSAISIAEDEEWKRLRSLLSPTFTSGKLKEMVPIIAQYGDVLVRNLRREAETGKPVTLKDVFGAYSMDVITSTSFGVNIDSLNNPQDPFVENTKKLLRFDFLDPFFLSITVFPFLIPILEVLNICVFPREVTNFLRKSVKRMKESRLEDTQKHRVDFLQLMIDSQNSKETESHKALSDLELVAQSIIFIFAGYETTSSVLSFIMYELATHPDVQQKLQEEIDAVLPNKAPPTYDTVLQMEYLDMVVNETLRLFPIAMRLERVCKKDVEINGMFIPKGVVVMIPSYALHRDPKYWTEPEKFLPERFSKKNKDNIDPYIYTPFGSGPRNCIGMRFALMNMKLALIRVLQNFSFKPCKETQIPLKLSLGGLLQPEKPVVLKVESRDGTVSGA
Summary of the method: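 Luminescent readout (RLU) proportional to CYP3A4 activity, from luciferin generated off a proluciferin substrate. Enzyme–substrate mix plus compound 10 min at room temp, NADPH regeneration 1 h, detection reagent 20 min.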

[13] = target: Voltage-gated inwardly rectifying potassium channel KCNH2 (Homo sapiens) (UniProt Q12809); assay: Human Ether-a-go-go-Related Gene (hERG) channel small molecule antagonists: fluorescence cell-based qHTS assay (AID 1671200); note: nearly all actives have a fitted effect of over 50% in size
Chain of UniProt Q12809 (Q12809 whole entry, looked up): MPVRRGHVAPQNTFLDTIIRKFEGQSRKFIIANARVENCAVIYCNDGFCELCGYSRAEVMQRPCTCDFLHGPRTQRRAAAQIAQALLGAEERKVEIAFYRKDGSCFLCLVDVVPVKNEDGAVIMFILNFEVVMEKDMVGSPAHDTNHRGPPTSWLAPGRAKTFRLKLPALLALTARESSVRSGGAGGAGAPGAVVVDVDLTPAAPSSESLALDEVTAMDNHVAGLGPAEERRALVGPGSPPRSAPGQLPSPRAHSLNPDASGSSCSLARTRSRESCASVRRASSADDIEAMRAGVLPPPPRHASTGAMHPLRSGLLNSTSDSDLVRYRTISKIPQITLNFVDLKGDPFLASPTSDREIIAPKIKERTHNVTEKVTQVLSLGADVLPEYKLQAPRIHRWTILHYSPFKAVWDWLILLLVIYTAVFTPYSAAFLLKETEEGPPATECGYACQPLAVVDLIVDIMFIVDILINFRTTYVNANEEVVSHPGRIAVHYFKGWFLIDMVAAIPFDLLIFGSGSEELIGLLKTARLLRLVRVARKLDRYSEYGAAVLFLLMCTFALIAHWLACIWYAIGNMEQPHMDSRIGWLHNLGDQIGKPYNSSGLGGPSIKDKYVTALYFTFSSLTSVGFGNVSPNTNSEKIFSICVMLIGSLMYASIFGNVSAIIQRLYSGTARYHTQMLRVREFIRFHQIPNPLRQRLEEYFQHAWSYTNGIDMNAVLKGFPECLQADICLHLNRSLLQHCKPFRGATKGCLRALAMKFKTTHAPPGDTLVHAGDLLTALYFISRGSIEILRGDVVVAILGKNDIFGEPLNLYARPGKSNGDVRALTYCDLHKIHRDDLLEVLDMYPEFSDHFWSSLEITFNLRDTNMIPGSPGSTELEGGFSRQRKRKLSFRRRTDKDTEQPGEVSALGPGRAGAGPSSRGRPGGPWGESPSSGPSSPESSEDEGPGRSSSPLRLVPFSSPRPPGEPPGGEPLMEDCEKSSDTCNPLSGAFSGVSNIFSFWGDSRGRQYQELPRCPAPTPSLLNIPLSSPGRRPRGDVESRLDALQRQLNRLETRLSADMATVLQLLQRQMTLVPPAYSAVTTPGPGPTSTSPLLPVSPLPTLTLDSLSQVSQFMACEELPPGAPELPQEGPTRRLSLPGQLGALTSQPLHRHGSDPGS
Summary of the method: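 Read-out: thallium influx as a surrogate for potassium, tracked as fluorescence (480 nm ex/540 nm em) every second for 2 min after Stimulus Buffer addition in dye-loaded hERG-U2OS cells.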

[14] = target: Cytochrome P450 2D6 (Homo sapiens) (UniProt P10635); assay: Cytochrome P450 Family 2 Subfamily D Member 6 (CYP2D6) small molecule antagonists: luciferase reporter qHTS assay (AID 1671196); note: nearly all actives have a fitted effect of over 50% in size
Chain of UniProt P10635 (P10635 whole entry, looked up): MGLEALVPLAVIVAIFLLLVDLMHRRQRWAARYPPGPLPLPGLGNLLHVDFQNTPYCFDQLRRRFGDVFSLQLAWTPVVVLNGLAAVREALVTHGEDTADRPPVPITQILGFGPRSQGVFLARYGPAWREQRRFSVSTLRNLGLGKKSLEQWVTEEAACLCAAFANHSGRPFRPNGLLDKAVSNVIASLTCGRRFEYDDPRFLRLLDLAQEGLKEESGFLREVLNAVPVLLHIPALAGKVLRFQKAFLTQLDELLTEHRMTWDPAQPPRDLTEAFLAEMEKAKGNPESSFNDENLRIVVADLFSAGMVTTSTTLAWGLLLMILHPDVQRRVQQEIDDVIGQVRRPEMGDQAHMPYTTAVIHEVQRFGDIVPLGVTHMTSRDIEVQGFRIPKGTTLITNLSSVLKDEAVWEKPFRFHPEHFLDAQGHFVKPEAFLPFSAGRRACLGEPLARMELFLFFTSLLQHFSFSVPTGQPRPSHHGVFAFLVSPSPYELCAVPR
Summary of the method: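 Chemicals tested for interference with CYP2D6 activity; proluciferin substrate, NADPH regeneration, 1 h at room temperature, luminescent detection.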
Potency is the fitted concentration of half-maximal effect; tags give direction and shape of the fitted curve.

Which Potency [1] does the source give for `C[C@@H]1O[C@@H](O[C@@H]2[C@@H](O)[C@H](OCCc3ccc(O)c(O)c3)O[C@H](CO[C@@H]3O[C@H](CO)[C@@H](O)[C@H](O)[C@H]3O)[C@H]2OC(=O)/C=C/c2ccc(O)c(O)c2)[C@H](O)[C@H](O)[C@H]1O` here?
The Potency was inconclusive: 52.7 µM [cytotoxic, partial curve].

What about the Potency [2] of the same molecule?
Its Potency is inconclusive: 52.7 µM [cytotoxic, partial curve].

What about the Potency [3] of the same molecule?
The Potency was “inactive”.

What about the Potency [4] of the same molecule?
The Potency was inconclusive: 43.3 µM [inhibitor, partial curve, poor fit].

Which results are given for `O=C(O)c1cc(O)c(O)c(O)c1`?
Potency [1]: active: 49 µM; Potency [2]: inconclusive: 33.5 µM [cytotoxic]; Potency [5]: inconclusive: 29.8 µM [cytotoxic, partial curve]; Potency [6]: inconclusive: 80.4 µM [inhibitor, single point] and inconclusive: 9.77 µM [inhibitor, single point]; Potency [4]: inconclusive: 35.9 µM [inhibitor, partial curve] and inconclusive: 15.5 µM [inhibitor, partial curve, poor fit]; Potency [7]: inconclusive: 63.9 µM [inhibitor, partial curve] and inactive

What does the source list for `COc1cccc(N(C)C(=S)Oc2ccc3c(c2)CCCC3)n1`?
Potency [1]: inactive; Potency [2]: inconclusive: 33.5 µM [cytotoxic, single point]; Potency [8]: inconclusive: 15.8 µM [activator, partial curve, poor fit]; Potency [9]: inconclusive: 2.51 µM [activator, partial curve, poor fit]; Potency [10]: active: 1.26 µM; Potency [4]: inconclusive: 13.8 µM [inhibitor, partial curve]; Potency [7]: active: 24.5 µM

Which Potency [1] does the source give for `CCCCNC(=S)NCCCC` here?
The Potency was inconclusive: 68.6 µM [cytotoxic, single point].

What about the Potency [2] of the same molecule?
Its Potency is inconclusive: 77 µM [cytotoxic, single point].

And the Potency [11]?
Its Potency is inconclusive: 61.1 µM [activator, partial curve, poor fit].

What about the Potency [4] of the same molecule?
Its Potency is active: 71 µM.

And the Potency [12]?
Its Potency is active: 31.7 µM.

What does the source list for `O=C1OC(CN2CCOCC2)CN1/N=C/c1ccc([N+](=O)[O-])o1` (configuration not stated)?
Potency [1]: inconclusive: 33.5 µM [cytotoxic, single point]; Potency [2]: inconclusive: 33.5 µM [cytotoxic, single point]; Potency [5]: inconclusive: 29.8 µM [cytotoxic, single point]; Potency [7]: inactive

Which Potency [1] does the source give for `COc1cc2nc(N3CCN(C(=O)C4COc5ccccc5O4)CC3)nc(N)c2cc1OC` (configuration not stated) here?
Its Potency is active: 26.6 µM.

And the Potency [2]?
The Potency was inconclusive: 33.5 µM [cytotoxic, single point].

And the Potency [5]?
Its Potency is inconclusive: 33.5 µM [cytotoxic, single point].

And the Potency [4]?
The Potency was inconclusive: 34.7 µM [inhibitor, partial curve, poor fit].

What about the Potency [7] of the same molecule?
The Potency was “inactive”.

What about the Potency [13] of the same molecule?
The Potency was inconclusive: 23.9 µM [inhibitor, partial curve, poor fit].

With `CCCCCC(C)=O` as the molecule, how does the Potency [1] read?
The Potency was “inactive and active: 61.1 µM”.

And the Potency [2]?
The Potency was inconclusive: 68.6 µM [cytotoxic, single point].

And the Potency [3]?
Its Potency is “inactive and inconclusive: 54.5 µM [activator, partial curve, poor fit]”.

And the Potency [7]?
Its Potency is inconclusive: 81.3 µM [inhibitor] and inactive.

Which results are given for `CSc1ccc(O)cc1C`?
Potency [1]: inconclusive: 68.6 µM [cytotoxic, single point]; Potency [2]: inconclusive: 77 µM [cytotoxic, single point]; Potency [3]: inconclusive: 54.5 µM [activator]; Potency [6]: inconclusive: 89.4 µM [inhibitor, single point]; Potency [4]: inconclusive: 63.3 µM [inhibitor, partial curve]; Potency [12]: inconclusive: 56.4 µM [inhibitor, partial curve]

Which results are given for `CCCNCC(O)COc1ccccc1C(=O)CCc1ccccc1` (configuration not stated)?
Potency [1]: active: 29.8 µM; Potency [2]: inconclusive: 26.6 µM [cytotoxic, single point]

Which Potency [1] does the source give for `CCN(CC)CCOc1ccc2c(c1)C(=O)c1cc(OCCN(CC)CC)ccc1-2` here?
Its Potency is active: 13.3 µM.

And the Potency [2]?
Its Potency is active: 26.6 µM.

And the Potency [3]?
The Potency was inconclusive: 13.3 µM [activator, single point].

What about the Potency [14] of the same molecule?
Its Potency is inconclusive: 8.71 µM [inhibitor, full curve, poor fit].

For `CC(C)(C)C(=O)OCOP(=O)(COCCn1cnc2c(N)ncnc21)OCOC(=O)C(C)(C)C`, which Potency [1] is on record?
The Potency was inconclusive: 11.9 µM [cytotoxic, partial curve, poor fit].

What about the Potency [2] of the same molecule?
Its Potency is inconclusive: 29.8 µM [cytotoxic, partial curve].

For `CC(=O)c1ccc2c(c1)N(CCCN(C)C)c1ccccc1S2`, which Potency [1] is on record?
Its Potency is inconclusive: 29.8 µM [cytotoxic, partial curve].

And the Potency [2]?
The Potency was inconclusive: 37.6 µM [cytotoxic, partial curve].

What about the Potency [5] of the same molecule?
Its Potency is inconclusive: 29.8 µM [cytotoxic, single point].

What about the Potency [10] of the same molecule?
Its Potency is “inactive”.

What about the Potency [6] of the same molecule?
Its Potency is inconclusive: 38.9 µM [inhibitor, single point].

And the Potency [7]?
The Potency was active: 11 µM.

And the Potency [13]?
Its Potency is inconclusive: 10.7 µM [inhibitor, partial curve].
